The record followed here is the supplement of paper PMC10600219.

Where a name gives a salt, the structure may show the parent alone. Over roughly 2,800 compounds, “cell viability relative to vehicle” has its median near 1.1; the lowest 2% begin near 0.19. This is one part of the list.

This test deals with NCI-H2228 parental. Put plainly: cell viability relative to vehicle (fraction of vehicle); NCI-H2228 is an ALK-positive lung cancer line and DTP means drug-tolerant persister; higher = less growth inhibition. The settings on record: 100 nM; treatment time 6 days. The method, boiled down: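 NCI-H2228 parental cells and drug-tolerant persister cells were plated in 384-well plates; the persisters had been generated with 1000 nM of a targeted drug over 13 days. One day later, the 3114-agent TargetMol anti-cancer compound library was added at 100 nM, with DMSO serving as vehicle. ATP was measured 6 days after that using the CellTiter-Glo 3D Cell Viability Assay. Values are cell viability expressed relative to vehicle-treated cells.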
On to `CCCCC/C=C\C/C=C\C/C=C\CCCCC(=O)O` [gamma-Linolenic acid], for which the cell viability was 1.01. Regarding `c1ccc(CNc2nc(N3CCOc4ccccc43)nc3c2CCCC3)cc1` [ML241 hydrochloride], the cell viability is 1.01.

As for `CCCCN1CCCC[C@H]1C(=O)Nc1c(C)cccc1C` [Levobupivacaine], the cell viability was determined as 1. As for `CNCc1ccc(C)c(NC(=O)c2ccc(Nc3nc(-c4ccccc4)c4ccccc4n3)cc2)c1`, the cell viability was 1.2. Consider `Nc1ccc(C(=O)O)c(O)c1` [Sodium 4-aminosalicylate dihydrate], for which the cell viability was 1.18. Regarding `Nc1ccc(C(=O)O)c(O)c1` [Aminopar], the cell viability was determined as 0.992. The result for `CC(C)n1c(=O)n(C)c2cnc3cc(F)c(-c4ccc(OCCCN5CCCCC5)nc4)cc3c21` reads 0.643; that for `COc1cc(CCc2cc(NC(=O)c3ccc(N4CC(C)NC(C)C4)cc3)n[nH]2)cc(OC)c1` (stereo not drawn), 1. Take `O=C(O)/C(Cc1ccccc1[N+](=O)[O-])=N/Nc1nc(-c2ccc(Cl)c(Cl)c2)cs1`: the cell viability was 0.884. Consider `NCCCS(=O)(=O)O` [Homotaurine], for which the cell viability came out at 1.14. As to `CC(C)[C@H](O)C(=O)N[C@@H](C)C(=O)N[C@@H]1C(=O)N(C)CCc2ccccc21` [Semagacestat], the cell viability was found to be 1.1. The result for `Cc1cn(-c2cc(NC(=O)c3ccc(C)c(Nc4nccc(-c5cnccn5)n4)c3)cc(C(F)(F)F)c2)cn1` [Radotinib] reads 0.972; that for `CCC(=O)O[C@]1(C(=O)SCF)[C@H](C)C[C@H]2[C@@H]3C[C@H](F)C4=CC(=O)C=C[C@]4(C)[C@@]3(F)[C@@H](O)C[C@@]21C` [Fluticasone propionate], 0.795; that for `Cc1cc(F)c(C(=O)Nc2cccc(-c3nncn3C(C)C)n2)cc1-n1cnc(C2CC2)c1` [Selonsertib], 0.97. Regarding `CN1CCC(=C2c3ccccc3CCn3c(C=O)cnc32)CC1` [Alcaftadine], the cell viability is 1.2. Consider `O=C(Nc1ccc(CN2CCOCC2)cc1)c1ccc(-c2cccc(Cl)c2)o1`, for which the cell viability amounted to 0.775. The result for `Nc1ccccc1C(=O)C[C@H](N)C(=O)O` [L-Kynurenine] reads 1.03. The result for `COc1ccc(CCC(=O)Nc2nc3ccc(Cl)cc3s2)cc1OC` reads 1; that for `C=C1C(=O)O[C@H]2[C@H]1CC/C(C)=C/CC[C@@]1(C)O[C@@H]21` [Parthenolide], 1.11. The result for `Cn1nnc2c(C(N)=O)ncn2c1=O` [Temozolomide] reads 0.813; that for `C[C@]12CC[C@H](O)CC1=CC[C@@H]1[C@@H]2CC[C@]2(C)C(c3cccnc3)=CC[C@@H]12` [Abiraterone], 1.1. For the compound `CC(C)(C)CC(C)(C)c1ccc(OCCOCC[N+](C)(C)Cc2ccccc2)cc1` [Benzethonium chloride], the cell viability turned out to be 1.18.

As for `COc1ccc(C=C(C#N)c2cccnc2)cc1OC`, the cell viability was 1.15. Regarding `C=CC[N+]1([C@H]2C[C@H]3[C@@H]4CC[C@H]5C[C@H](O)[C@@H](N6CCOCC6)C[C@]5(C)[C@H]4CC[C@]3(C)[C@H]2OC(C)=O)CCCC1` [Rocuronium bromide], the cell viability came to 1.03. Regarding `Cc1ccc(C(=O)Cn2c3c(sc2=N)CCCC3)cc1` [Pifithrin-α], the cell viability came out at 0.899.

On to `CC(C)(C)NC(=O)[C@H]1CC[C@H]2[C@@H]3CC[C@H]4NC(=O)C=C[C@]4(C)[C@H]3CC[C@]12C` [Finasteride], for which the cell viability came to 1.12. The result for `Cc1ccc(C(=O)N(CCCN)[C@@H](c2oc3cc(Cl)ccc3c(=O)c2Cc2ccccc2)C(C)C)cc1` reads 0.247; that for `C=C1CC[C@H](O)C/C1=C/C=C1\CCC[C@]2(C)[C@@H]([C@H](C)/C=C/[C@H](C)C(C)C)CC[C@@H]12` [Vitamin D2], 1.04. As to `COc1cc2ccc(=O)oc2cc1OC` [Scoparone], the cell viability stood at 1.03. On to `CCS(=O)(=O)N1CCN(c2ccc(Nc3ncc(C(N)=O)c(NC4CC4)n3)cc2)CC1` [Cerdulatinib], for which the cell viability came out at 0.683. Regarding `CC(=O)NC(CC(C)C)C(=O)O` (stereo not drawn) [Acetylleucine], the cell viability came out at 1.28.

Consider `CC(C)C(=O)c1c(C(C)C)nn2ccccc12` [Ibudilast], for which the cell viability is 1.08. Take `C[C@H]1COC2(CCN(c3nc(=O)c4cc(C(F)(F)F)cc([N+](=O)[O-])c4s3)CC2)O1`: the cell viability turned out to be 1.23. On to `CCc1ccc(OCC(=O)Nc2ccc(F)c([N+](=O)[O-])c2)cc1`, for which the cell viability was 1.07. As for `O=C(c1ccccc1)c1ccc2nc(NC(=O)c3csc(C4CCN(c5ncnc6ccsc56)CC4)n3)[nH]c2c1`, the cell viability was 1.03. The result for `CN1CCN(c2ccc(C(=O)Nc3cc(-c4cccc(NS(=O)(=O)c5ccccc5)c4)[nH]n3)cc2)CC1` reads 1.15; that for `CC(CN(C)C)CN1c2ccccc2CCc2ccccc21` (stereo not drawn) [Trimipramine maleate], 0.975; that for `CCCCCCCC(=O)c1c(O)cc(O)cc1CC(=O)OCC` [Cytosporone B], 1.03. As for `Cc1c(-c2ccc(-c3ccccc3F)cc2)nc2ccc(F)cc2c1C(=O)O` [Brequinar], the cell viability stood at 1. `C=CC(=O)N[C@H]1CCOC[C@H]1Nc1ncc2cc(-c3c(Cl)c(OC)cc(OC)c3Cl)ccc2n1`: the cell viability is 1.07. Take `C[C@H](CS)C(=O)N1CCC[C@H]1C(=O)O` [Captopril]: the cell viability stood at 1.21. The result for `CCOC(=O)c1c2c3c(cccc3[nH]c1=O)C(=O)c1ccccc1-2` reads 1.06; that for `COc1cc(/C=C/C=O)ccc1O` [Coniferyl aldehyde], 0.918.

As to `Cn1cnc2c(F)c(Nc3ccc(Br)cc3Cl)c(C(=O)NOCCO)cc21` [Selumetinib], the cell viability amounted to 1.04. Take `Nc1nc(N)c2nc(-c3cccc(O)c3)c(-c3cccc(O)c3)nc2n1`: the cell viability amounted to 1.19. As to `NCCc1ccc(O)c(O)c1` [Dopamine hydrochloride], the cell viability is 1.1. The result for `O=C(/C=C/c1cccnc1)NCCCCC1CCN(C(=O)c2ccccc2)CC1` reads 0.271; that for `Cc1c(Nc2ncccc2C(=O)O)cccc1C(F)(F)F` [Flunixin meglumin], 1.02. As to `OC[C@@H](O)CN1CCN(c2ccccc2)CC1` [Levodropropizine], the cell viability worked out at 1.02. The result for `N#CC1(c2ccc(NC(=O)c3cccnc3NCc3ccncc3)cc2)CCCC1` [Apatinib] reads 0.88; that for `CC(ONC(=O)c1cc(C(F)(F)F)cc(C(F)(F)F)c1)C(=O)Nc1ccc(Cl)cc1` (stereo not drawn), 1.07; that for `CN1CCN(C(=O)c2cc3cc(Cl)ccc3[nH]2)CC1`, 1.11. For the compound `COc1ccc(CNc2nc(N3CCC[C@H]3CO)ncc2C(=O)NCc2ncccn2)cc1Cl` [Avanafil], the cell viability was determined as 0.966.
